Data from PubChem BioAssay AID1508624 (National Center for Advancing Translational Sciences (NCATS), 2021).
Among all 48,000 compounds or so, about 120 (0.25%) were called active. Another 4% or so got no clear call; they are omitted. Calls come from the whole dose curve; as a rule, active = well fitted activation curve with a large enough effect; inconclusive = small, poorly fitted or top-dose-only effect, or another doubt; inactive = no such curve, though single readings can be large or run the other way. The list shows a part of the results.

Experiment: Primary qHTS for Identification of Small Molecule Activators of Huntingtin-Antisense Promoter Activity; note: nearly all actives have a fitted effect of over 55% in size
Conditions: HEK293 HTT-AS promoter firefly luciferase reporter, 24 h; series mostly up to 57.5 µM; activity change, positive = activation: at the top concentration
In short: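 Firefly luciferase signal from promoter-reporter HEK293 cells was scaled between vehicle (0%) and zero RLU (-100%). Compounds were tested at final concentrations of up to 57.5 uM over 24 h at 37 degrees C. PTC124 at 50 uM final served as control inhibitor.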

Activity change, positive = activation, inactive:
Cc1ccc(S(=O)(=O)C(CNS(=O)(=O)c2cc(F)ccc2F)c2cccs2)cc1 (configuration not stated) -19.2%, Cc1cccc(C)c1NC(=O)Cn1nnc(S(=O)(=O)c2ccccc2)c1N -13.9%, O=C1CN(C(=O)c2ccc(S(=O)(=O)N3CCCC3)cc2)C(c2ccccc2)c2cc(F)ccc2N1 (configuration not stated) 6.16%, Cc1ccccc1-c1noc(-c2ccccc2OCC(=O)Nc2cccc([N+](=O)[O-])c2)n1 -10.1%, N#Cc1c(-c2ccccc2)cc(-c2ccccc2)nc1SCC(O)CS(=O)(=O)Cc1ccc(Cl)cc1 (configuration not stated) 0%, COc1ccc2c3c1OC1C[C@@H](O)C=C[C@@]31CCN(C)C2 (some centres not stated) -11.5%, CCn1cc(/C=C(\NC(=O)c2cc(OC)c(OC)c(OC)c2)C(=O)NCCCn2ccnc2)c2ccccc21 -7.12%, Cc1cc(NC(=O)Cc2ccccc2)cc(-c2nc3ccccc3o2)c1O 1.97%, Cc1c(C(=O)NCCN(C)C)oc2c1-c1nn(Cc3cccc(Cl)c3)cc1CC2 -14.9%, CCOC(=O)c1cc2c(=O)n3ccccc3nc2n(C(C)C)c1=NC(=O)C(C)(C)Oc1ccc(Cl)cc1 15.3%, CN(C)c1ccc(Nc2ncnc3c2c(-c2ccccc2)cn3-c2cccc(Cl)c2)cc1 -27.4%, CCn1cc2nc(SCc3ccccc3Cl)n(Cc3ccc(OC)cc3)c(=O)c2n1 -6.84%, COc1cccc(CNC(=O)c2ccc(-c3nc(CSc4ccccc4)c(C)o3)cc2)c1 6.28%, CC(=O)Nc1ccccc1-c1nc2ccccc2n(C(C)C(=O)Nc2ccccc2C(F)(F)F)c1=O (configuration not stated) -12.9%, COc1ccc(-c2c(C)c3ccc(O)c(CN4CCC(C)CC4)c3oc2=O)cc1OC -12.8%, CCCN(CCC)CCCNC(=O)c1cc2c(=O)n(C)c3ccccc3c2s1 0.039%, Cc1ccc(CNC(=O)c2cc(=O)c3cc(C)ccc3o2)cc1 -14.4%, COc1cc(OC)c(OC)cc1/C=C/c1nc2cc3ccccc3cc2c(=O)n1-c1ccccc1Br -11.8%, COc1cc2c(c(OC)c1)C(c1cccc(F)c1F)CC(=O)N2 (configuration not stated) -13.8%, CCN1CCN(c2oc(-c3ccc(COc4ccccc4C)o3)nc2C#N)CC1 -22.9%, Cc1ccc(NC(=O)C2CCN(S(=O)(=O)c3cccc4nsnc34)CC2)cc1F -16%, Cc1noc(C)c1S(=O)(=O)N(CC(=O)Nc1ccc(F)cc1F)c1ccc(C(C)C)cc1 -39.4%, COc1cccc(CNC(=O)Cn2ncn3nc(-c4cccs4)cc3c2=O)c1 -3.17%, Oc1c(C(Nc2ccccn2)c2ccccc2F)ccc2cccnc12 (configuration not stated) -30.4%, COc1ccc(Cn2ccc3nc(C)c(C(=O)Nc4cccc(SC)c4)cc3c2=O)cc1 -14.6%, COc1ccc(NC(=O)C(=O)NCCc2csc3nc(-c4ccccc4F)nn23)cc1OC 2.9%, COCCNC(=O)Cn1nc(-c2ccccc2)c2ccccc2c1=O 0%, COc1cc(OC)c(C2CC(=O)Nc3ccc4ccccc4c32)cc1OC (configuration not stated) -15.2%, Nc1nc(N)c(N=O)c(OCC2CCCCC2)n1 7.01%, COC(=O)c1ccccc1NC(=O)c1nc(-c2ccc(C)cc2)n2c1CCCCC2 -5.23%, CC(NC(=O)Cn1c(=O)oc2cc(S(=O)(=O)N3CCCCCC3)ccc21)c1ccccc1 (configuration not stated) -2.58%, CC(NC(=O)c1cc2c(=O)n3ccccc3nc2n(C(C)C)c1=N)c1ccccc1 (configuration not stated) 2.59%, Cc1cccc(OC(=O)CSc2nnc(-c3ccc4c(c3)OCO4)o2)c1C -32.1%, Cc1ccc(C2=NN(CC(=O)NCCc3ccccc3)C(=O)CC2)cc1 -1.85%, COc1cccc(Cn2c(=O)n(CC3CCC(C(=O)NC(C)C)CC3)c(=O)c3sccc32)c1 (configuration not stated) -11.3%, Cc1cn(C)c(CC(=O)NCc2ccc(Cl)cc2)c1C(=O)O -10.3%, Cc1ccc(CCNS(=O)(=O)c2ccc3c(c2)C(C(C)C)C(=O)N3)cc1 (configuration not stated) -16.9%, COc1cc(NC(=O)CN2C(=O)CCc3cc(Br)ccc32)cc(OC)c1OC -23.9%, CC(=O)N1c2ccccc2C(=O)C1N1CCN(c2cccc(Cl)c2)CC1 (configuration not stated) -33.4%, COc1ccc(Cl)cc1NC(=O)CSC1=Nc2ccccc2C2=NC(CCC(=O)NCc3ccco3)C(=O)N12 (configuration not stated) -15.9%, CCOC(=O)c1c(NC(=O)c2cc(=O)c3cc(C)ccc3o2)sc2c1CCCC2 11.2% [at 11.5 µM, percent change from vehicle, -100% = no light], Cc1ccc(Cn2c(CCNC(=O)c3cccc(C)c3)nc3ccccc32)cc1 -33.9%, Cc1cccc(NC(=O)CN2C(=O)C3(SCC(=O)N3c3ccccc3)c3ccccc32)c1 (configuration not stated) -33.2%, Cc1ccc(Cn2c(C(=O)O)c(CNCc3ccc(C)o3)c3ccc(C)cc32)cc1 -26.2%, Cc1ccc(S(=O)(=O)N2CCN(Cc3ccccc3Cl)CC2)cc1 -22.6%, NC(=O)c1cnccn1, CC(C)Cn1cc(NC(=O)NCc2cccc(Cl)c2)c2ccccc2c1=O -14.6%, COc1ccc(NC(=O)c2cccc(N3CCCS3(=O)=O)c2)c(OC)c1 11.8%, O=C(NCCC1=CCCCC1)c1ccc2c(c1)sc1nc(-c3ccc(F)cc3)cn12 19.2%, O=C(NCCc1ccccc1)c1ccc2c(c1)N(Cc1ccc(F)cc1)C(=O)CS2 -51.2%, Cc1ccc2oc(C(=O)Nc3sc4c(c3C(=O)NCC3CCCO3)CCC4)cc(=O)c2c1 (configuration not stated) 12.5% [at 11.5 µM, percent change from vehicle, -100% = no light], CCN(CC)c1ccc(NC(=O)CN2CCN(CC(=O)Nc3ccc(Cl)cc3)CC2)cc1 -12.2%, COc1cccc(CNC(=O)Cn2ncc3c(=O)oc4ccccc4c32)c1 -16.7%, Cc1ccc(CSc2cn(CC(=O)N3CCCCCC3)c3ccccc23)cc1 -0.854%, O=S(=O)(NCc1ccc(F)cc1)c1ccc(N2CCCCS2(=O)=O)cc1 -29.3%, CCCN(Cc1cc2cccc(C)c2[nH]c1=O)C(=O)c1cccc(Cl)c1 -4.72%, CCNC(=O)[C@@H]1CCCN1C(=O)[C@H](CCCN=C(N)N)NC(=O)[C@H](CC(C)C)NC(=O)CNC(=O)[C@H](Cc1ccc(O)cc1)NC(=O)[C@H](CO)NC(=O)[C@H](Cc1c[nH]c2ccccc12)NC(=O)[C@H](Cc1cnc[nH]1)NC(=O)[C@@H]1CCC(=O)N1 -3.14%, CCOc1ccc(C2c3c(-c4cc(C)ccc4O)n[nH]c3C(=O)N2Cc2cccnc2)cc1OCC (configuration not stated) -21.1%, COc1ccccc1NC(=O)CC(C)n1nc(C)cc1C (configuration not stated) -1.55%, CCOC(=O)c1ccc(NC(=O)CSc2nc3c(c(=O)[nH]2)CN(Cc2ccccc2)CC3)cc1 -25.5%, COc1ccccc1Nc1ncc2c(n1)CCN(Cc1ccc(C)s1)C2 7.2%, Cc1cc(F)ccc1NC(=O)CCS(=O)(=O)c1cc2c(cc1C)NC(=O)CO2 -15.9%, COc1ccc(OC)c(CCNC(=O)CCCn2c(=O)c3cccn3c3ccc(F)cc32)c1 -1.44%, COc1ccc(-n2nc3c(N4CCC(C(=O)NCc5ccccc5C)CC4)nnc(C)c3c2C)cc1 -30.7%, CCOC(=O)N1CCC(NC(=O)c2c(C)nn(-c3cccc(C)c3)c2-n2cccc2)CC1 -19.8%, Cc1ccc2c(=O)c(C(=O)c3cccc(Cl)c3)cn(CC(=O)NC3CCCCC3)c2n1 -20.2%, Cc1ccc(N(CC(=O)N2CCN(c3ccc(F)cc3)CC2)S(=O)(=O)c2c(C)noc2C)cc1 -20.6%, CC(C)(C)C(=O)NCCc1nc2ccccc2n1CCCCOc1ccccc1 -29.1%, CCCCN1CC(c2nc3ccccc3n2CCCCOc2ccccc2C)CC1=O (configuration not stated) -51.3%, CC(=O)OC1=CN(Cc2ccccc2)S(=O)(=O)c2ccccc21 -10.8%, COc1ccc(OC)c(S(=O)(=O)NCCc2sc(-c3cccnc3)nc2C)c1 -4.46%, O=C(c1ccc2c(c1)N(Cc1ccc(Cl)cc1)C(=O)c1ccccc1S2(=O)=O)N1CCCCCC1 -34.9%, CCCN(Cc1cccs1)C(=O)Nc1cc(C)ccc1OC -7.62%, Cc1cccc(C)c1Nc1c(-c2ccccc2Cl)nc2cnccn12 -35.9%, COc1ccccc1N1CCN(c2nc3ccc(C(=O)c4ccccc4)cc3n3c(C)nnc23)CC1 0.753%, Cc1ccc(-c2onc(C)c2C)cc1S(=O)(=O)NCc1cccs1 -45.9%, COc1ccc(OC)c(CNC(=O)C2CCN(S(=O)(=O)N3CCCCC3)CC2)c1 -4.54%, O=C(COc1ccc(F)cc1)Nc1ccc2nc(SCC(=O)N3CCCC3)sc2c1 -21%, COc1ccccc1N1CCN(C2C(=O)c3ccccc3N2C(C)=O)CC1 (configuration not stated) -15.5%, Cc1ccc(-c2cn3c(n2)sc2cc(C(=O)NCCC4=CCCCC4)ccc23)c(C)c1 23.3%, CCOc1ccc(S(=O)(=O)NCC(c2ccc(N(C)C)cc2)N2CCCC2)cc1 (configuration not stated) -9.46%, CCOc1ccc(-c2nnc(SCC(=O)Nc3ccccc3C(F)(F)F)o2)cc1 -25.9%, Cc1ccc(N2C(=O)C(CC(=O)Nc3ccc(F)cc3)N(CCC3=CCCCC3)C2=O)cc1 (configuration not stated) -53.8%, Cc1cccc(C)c1NC(=O)c1cc(S(N)(=O)=O)c(Cl)cc1O 6.84%, Cc1cc(C)c(S(=O)(=O)Nc2ccc3oc4c(c3c2)CCCC4)cc1C -17.1%, COCCCNC(=O)c1ccc(CSc2nc3cccnc3n2Cc2ccc(OC)cc2)cc1 -15%, CC(CNC(=O)CCn1c(=O)c2cccn2c2ccc(F)cc21)c1ccccc1 (configuration not stated) -20.1%, CCOC(=O)c1ccccc1NC(=O)CSc1c(C)cnc2c1c(=O)n(C)c(=O)n2C -7.67%, Cc1nc2c(c(C)c1CCC(=O)N1CCN(c3ccccc3)CC1)c(=O)n(C)c(=O)n2C -14.5%, COc1ccc(C2C=C(c3ccccc3)Nc3nc(NS(=O)(=O)c4ccccc4)nn32)cc1 (configuration not stated) -17.8%, O=C(Nc1cccc(Cl)c1Cl)c1cc(S(=O)(=O)N2CCCCC2)ccc1F -8.89%, Cc1ccc(C)c(Cn2c(=O)n(-c3ccc(Cl)cc3)c(=O)c3c4c(sc32)CCC4)c1 -5.95%
